The whole screen tested about 46,000 compounds, of which about 60 (0.1%) were called active. Not shown: some 3% with an inconclusive outcome. Calls come from the whole dose curve; as a rule, active = well fitted inhibition curve with a large enough effect; inconclusive = small, poorly fitted or top-dose-only effect; inactive = no such curve, though single readings can be large or run the other way. This is one part of the list.
Test: Primary qHTS assay for Inhibitors of ovarian cancer metastasis using an organotypic tumor microenvironment (TME) model.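 For activity change, negative = inhibition: plate controls were DMSO wells for no effect and tomatine positive control wells for full effect.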 Note: nearly all actives have a fitted effect of over 65% in size.
Conditions: SKOV3ip1-GFP adhesion/invasion on 3D omental model, fluorescence; series mostly up to 45.8 µM; activity change, negative = inhibition: at the top concentration
Outline: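 Adhesion/invasion was scored as fixed GFP-labeled SKOV3ip1 cell counts (488/509 nm), normalized to DMSO and tomatine controls. Cancer cells in serum-free medium, with four compound doses (0.36-46 umol/L), sat 2 hr at RT then 16 hr at 37 C on a 48 hr fibroblast/mesothelial/ECM culture.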

outcome, inactive:
CCCOc1ccccc1-c1nc(SCC(=O)c2ccccc2)n[nH]1
CC(=O)Nc1ccc(S(=O)(=O)N2CCC(c3ccncc3)CC2)cc1
Cc1ccc2c(CN3CCN(Cc4ccccc4Cl)CC3)cc(=O)oc2c1
COc1ccc(CCNC(=O)CCCn2c(=O)c3cccn3c3cccnc32)cc1OC
CCC1CN(C(=O)NCc2cccc(OC)c2)c2cc(Cl)ccc2O1 (stereo not given)
CCOc1ccc(CNC(=O)c2ccc(Sc3ccc(Cl)cc3)c(NC(C)=O)c2)cc1
Cc1nc2sc(C(=O)N(C)Cc3ccccc3)c(NC(=O)c3ccccc3)c2c(C)c1Cl
Cc1cc(C)cc(Nc2ncnc3c2nc2n3CCCC2)c1
CCCOc1ccc(NC(=O)CC2C(=O)N(c3ccc(C)cc3)C(=O)N2C(C)C)cc1 (stereo not given)
O=C(COc1ccccc1)Nc1sc2c(c1C(=O)Nc1ccccc1Cl)CCCCC2
COc1ccc(S(=O)(=O)n2nc(C)c(S(=O)(=O)N3CCCCC3)c2C)cc1
COCCCN(Cc1ccco1)C(=O)c1cc2c(s1)-c1ccccc1OC2
CC(=O)c1ccc(N2CCN(c3ncnc4c3c(-c3ccccc3)cn4-c3ccc(C)c(Cl)c3)CC2)cc1
COc1ccccc1-c1noc(-c2ccc(N3CCOCC3)c([N+](=O)[O-])c2)n1
COc1ccccc1CNC(=O)CN1C(=O)CCc2cc(S(=O)(=O)N3CCCCC3)ccc21
CCOC(=O)C1CCN(c2nc3c(S(=O)(=O)c4ccc(Br)cc4)nnn3c3ccsc23)CC1
Cc1nn(-c2ccc(N3CCCCC3)nn2)c(C)c1CCC(=O)NCc1ccc(F)cc1
CCOc1ccc(-c2nnc(SCC(=O)Nc3ccc(C)cc3C)o2)cc1

Activity change, negative = inhibition, inactive:
Cc1ccc(-c2cc(NC(=O)c3ccccc3Cl)on2)cc1 6.42%
c1ccc2[nH]c(-c3cscn3)nc2c1 -2.2%
Cn1cc(-c2ccc3nnc(C(F)(F)c4ccc5ncccc5c4)n3n2)cn1 4.6%
Cc1ccc(S(=O)(=O)c2cn(Cc3cccc(F)c3)c3cc(N4CCCC4)c(F)cc3c2=O)cc1 30.4%
COc1ccc(C)cc1Nc1nc2c(S(=O)(=O)c3cccc(Cl)c3)nnn2c2ccsc12 -2.56%
CCOc1ccc(NC(=O)c2cc3sc(Cl)cc3n2CC)cc1 -14.5%
CCOC(=O)c1c(S(=O)(=O)N2CCCC(C(=O)Nc3ccc(OCC)cc3)C2)c(C)n(C)c1C (stereo not given) -0.0065%
CCCCN(CCCC)c1ncnc2c1cnn2-c1cccc(C)c1 -6.74%
COc1ccc(Br)cc1C(=O)Nc1ccc2oc(-c3cccnc3)nc2c1 0.339%
Cc1cc(C)n(C(C)CC(=O)NCc2ccccc2C)n1 (stereo not given) -13.3%
CCN1CCN(CCCNC(=O)c2ccc3nc(Cc4ccc(OC)cc4)oc3c2)CC1 -11.7%
O=C(Nc1ccc(C(=O)N2CCN(c3ccc(F)cc3)CC2)cc1)c1nsc2ccccc12 14.2%
CCOc1cc(CNS(=O)(=O)c2ccc3c(c2)CC(=O)N3C)cc(OCC)c1OCC 18.9%
COc1ccc(C2CC(=O)Nc3c2c(=O)nc2c(C)cccn32)cc1OC (stereo not given) 12.3%
CCCCC1CCC(C(=O)N2CC(=O)Nc3ccc(F)cc3C2c2ccc(F)cc2)CC1 (stereo not given) -7.9%
Cc1ccccc1C(=O)c1cccn1CC(=O)NCc1ccc(Cl)cc1 -3.37%
COc1ccc(OCc2ccc(-c3nc(C#N)c(N4CCN(C)CC4)o3)o2)cc1 -14.3%
COc1ccccc1CNC(=O)Cc1c(C)c2c(cc(C)c3c(C)c(C)oc32)oc1=O -16.4%
CCCC(=O)Nc1ccc2c(c1)nc(CN1CCN(C(=O)OCC)CC1)n2C(C)C -23.5%
COc1ccc(NC(=O)CSc2cn(CC(=O)N3CCCCC3)c3ccccc23)c(OC)c1 -1.72%
CCOC(=O)c1cc2c(=O)n3ccccc3nc2n(CC2CCCO2)c1=NC(=O)c1ccc(C(C)(C)C)cc1 (stereo not given) -5.96%
CCn1c2ccccc2c2nnc(N3CCN(c4ccc(F)cc4)CC3)nc21 -10.5%
COc1ccc(NC(=O)c2ccc(CN3C(=O)CCn4nc(C)cc43)cc2)c(OC)c1 -7.82%
CCOC(=O)c1c(NC(=O)COc2cccc(C(F)(F)F)c2)sc2c1CCC(C)C2 (stereo not given) 9.19%
CC(C)CCNC(=O)CN1C(=O)CCn2nc(-c3cn(C)c4ccccc34)cc21 8.88%
COc1ccc(C)c2sc(NC(=O)c3ccc(S(=O)(=O)N4CCCCC4)cc3)nc12 -3.23%
CCOc1ccc(NC(=O)CSc2oc(-c3ccco3)nc2S(=O)(=O)c2ccc(C)cc2)cc1 11%
COc1ccc(N2CC(NC(=O)COc3ccccc3F)CC2=O)cc1OC (stereo not given) 19.6%
CCOc1ccc(CCNC(=O)c2ccc(-c3nc(CSc4ccc(C)cc4)c(C)o3)cc2)cc1 -2.82%
Cc1nnc(SCc2cc(=O)c3ccccc3[nH]2)s1 -1.05%
Cc1nc(S(=O)(=O)N2CCN(c3ccc(Cl)cc3)CC2)cn1C 47.7%
CCCOc1ccc(/C=C/C(=O)Nc2sc(C)c(C)c2C(=O)OCC)cc1OC -0.799%
CCCN1CCN(CCCNC(=O)c2cc3c(Cl)nc4ccccc4c3s2)CC1 -4.48%
COC(=O)c1cc(NC(=O)Nc2ccc3snnc3c2)cc(C(=O)OC)c1 11.1%
CC[C@H](CC[C@@H](C)[C@H]1CC[C@H]2[C@@H]3CC=C4C[C@@H](O)CC[C@]4(C)[C@@H]3CC[C@]12C)C(C)C -10.5%
Cc1cccc(C)c1NC(=O)CN1C(=O)CCSc2ccc(S(=O)(=O)N3CCCC3)cc21 -9.47%
COc1ccc(N(CC(=O)Nc2ccc(C)c(C)c2)S(=O)(=O)c2ccc(C)cc2)cc1OC -1.35%
Cc1ccc(C)c(N2C(=O)N(Cc3c(F)cccc3Cl)c3ccccc3S2(=O)=O)c1 -10.6%
CCN(Cc1nc(-c2cccc(C)c2)no1)S(=O)(=O)c1ccc(C)cc1 -16.3%
CC(=O)OCc1cc(=O)n2nc(C3CCCCC3)sc2n1 -10.3%
Cc1ccccc1-c1noc(-c2ccc(N3CCN(c4ccccc4)CC3)c([N+](=O)[O-])c2)n1 -2.39%
COc1ccccc1N1CCN(C(=O)c2cc3c(=O)n(C)c4ccccc4c3s2)CC1 -7.65%
COc1ccc(-c2nc(SCC(=O)NC3CCCC3)c(-c3ccc(OC)cc3)[nH]2)cc1 35.6%
COc1ccc(CNC(=O)Cn2nc(C)n3cccc3c2=O)cc1 -4.78%
Cc1c(Cl)cccc1-n1ncc(C(=O)N2CCN(C)CC2)c1C1CCN(C(=O)OC(C)(C)C)CC1 11.4%
CC1CCN(C(=O)c2ccc3c(c2)N(Cc2ccccc2F)C(=O)c2ccccc2S3(=O)=O)CC1 12.4%
Cc1ccc(NC(=O)C(=O)NCC(c2cccnc2)N2CCOCC2)cc1 (stereo not given) 0.245%
O=C(Nc1ncc(-c2cc(C(F)F)nn2-c2c(Cl)cccc2Cl)s1)C1CC1 44.5%
CCc1ccc(NC(=O)CC(c2cc(OC)c(OC)c(OC)c2)N2Cc3ccccc3C2=O)cc1 (stereo not given) -12.3%
O=C(CSc1nc(-c2cccs2)nc2cc(=O)[nH]n12)Nc1ccccc1 -21.8%
COc1ccc(C(=O)NCCn2cc(SCc3cccc(F)c3)c3ccccc32)cc1OC -17%
CCCN(CCC)CCNC(=O)Cn1cnc2sc(C)c(S(=O)(=O)N3CCC(C)CC3)c2c1=O 8.01%
FC(F)(F)c1cccc(-n2cc(-c3ccccc3)c3c(N4CCCCC4)ncnc32)c1 -6.22%
COc1ccc(CCNC(=O)Cn2cc(C(=O)c3ccc(Cl)cc3)c(=O)c3ccc(C)nc32)cc1OC 4.4%
Cc1ccc(N2CC(C(=O)NCCS(=O)(=O)N3CCN(c4ccccc4)CC3)CC2=O)cc1 (stereo not given) 3.94%
Cn1c(=O)n(C)c2cc(NS(=O)(=O)c3ccc(F)cc3)c(NCc3ccccc3)cc21 3.76%
CCOC(=O)c1cccc(NC(=O)Cn2nc3c(cc2=O)CCCC3)c1 3.64%
COc1ccc(CNC(=O)c2cc3c(-c4ccc(Cl)cc4)nn(C)c3s2)cc1 -25.6%
COCCN1C(=O)c2oc3cc(C)cc(C)c3c(=O)c2C1c1cccc(O)c1 (stereo not given) -4.55%
COc1ccc(S(=O)(=O)N(CCc2ccccc2)CC(=O)NCc2ccccc2)cc1 -2.77%
CCCn1cc(S(=O)(=O)c2cccc(Cl)c2)c(=O)c2cc(F)c(N3CCOCC3)cc21 -1.02%
O=S(=O)(Nc1ccc(-c2ccc(N3CCCCC3)nn2)cc1)c1ccc(OC(F)(F)F)cc1 -28.4%
Cc1c(C(=O)NC(C)c2ccccc2)sc2ncnc(N(C)C3CCCCC3)c12 (stereo not given) -2.24%
Cc1ccc(-c2c(CN3CCN(c4cc(C)ccc4C)CC3)csc2C)cc1 3.54%
CCc1ccccc1NC(=O)CN1C(=O)CCn2nc(-c3cccn3C)cc21 -3.88%
CCc1ccc(NC(=O)c2cnn(-c3c(C)cccc3C)c2C2CCN(C(=O)OC(C)(C)C)CC2)cc1 10.8%
CCOC(=O)c1[nH]c2c(c1Cc1ccccc1C)C(=O)CC(c1ccccc1)C2 (stereo not given) -0.0887%
COC(=O)c1ccc(NC(=O)n2ncc3c(C)cccc32)cc1 -3.57%
CC1=C(c2ccc(C(C)C)cc2)S(=O)(=O)N=C1N1CCC(C(=O)Nc2ccc(C)cc2)CC1 -3.18%
COc1ccc(-c2cn3c(n2)sc2cc(C(=O)Nc4ccc(C)c(Cl)c4)ccc23)cc1 -2.2%
CCOC(=O)c1c(C)[nH]c(C)c1S(=O)(=O)N1CCC(C(=O)Nc2ccccc2CC)CC1 3.28%
Cn1c(=O)cc(SCC(=O)NCc2ccc(F)cc2)c2cc(Cl)ccc21 6.77%
Cc1ccc(S(=O)(=O)N2CCN(Cc3cc(=O)n4nc(-c5ccccc5Cl)sc4n3)CC2)cc1 -13.5%
O=C(NCCc1ccccc1)C(=O)NCC(c1cccs1)S(=O)(=O)c1cccs1 (stereo not given) -0.94%
CC1(C)N=C(SCc2ccc(Cl)cc2)c2ccccc2N1 1.45%
Cc1cc(=O)[nH]c2nnc(SCc3ccccc3F)n12 7.46%
Cc1c(C(=O)N2CCCCCC2)c(S(=O)(=O)Nc2cccc(C#N)c2)c(C)n1C 2.04%

From PubChem BioAssay AID1963576 (National Center for Advancing Translational Sciences (NCATS), 2024)
